# Assay results reported in publication PMC12820563, “FoxP3 forms a head-to-head dimer in vivo and stabilizes its multimerization on adjacent microsatellites”.
# The other results are listed elsewhere or left out.
# Target: T1, MBP-FoxP1dN (Mus musculus, UniProt P58462 326-579)
# T1 sequence: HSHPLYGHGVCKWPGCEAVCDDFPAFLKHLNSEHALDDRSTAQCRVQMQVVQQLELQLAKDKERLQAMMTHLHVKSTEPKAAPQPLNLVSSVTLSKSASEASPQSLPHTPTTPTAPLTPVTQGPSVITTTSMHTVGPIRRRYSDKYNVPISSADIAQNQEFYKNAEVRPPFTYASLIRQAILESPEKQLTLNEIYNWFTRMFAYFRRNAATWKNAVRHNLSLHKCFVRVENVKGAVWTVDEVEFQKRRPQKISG
# Assay: PD-seq (MBP pull-down with sequencing); 20 mM Tris-HCl pH 7.5, 100 mM NaCl, 1.5 mM MgCl2, 0.4 uM protein, 0.1 uM dsDNA library, 30 min, room temperature, amylose pull-down; high values mean tight binding
# Settings: protein: recombinant; tags: His6-MBP; chain copies: 2; dsDNA, one strand shown
# In short: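 A degenerate double-stranded DNA library, filled in with Klenow, was added at 0.1 µM to 0.4 µM His6-MBP-tagged mouse FoxP3 or FoxP1 fragment lacking the N-terminus, expressed in E. coli. Incubation lasted 30 min at room temperature in Tris pH 7.5 buffer with NaCl and MgCl2, after which complexes were collected on amylose resin, washed three times, digested with proteinase K to free the DNA, barcoded by PCR and sequenced by Illumina. Binding is the pooled-replicate reads-per-million enrichment of pull-down over input.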
row,Sequence,binding signal
1,GATGATTGTTCTCCCAGCTGATGAATTGGCCACCTCGAGTAAACAAATTTTCCTAATCTTTCTGTTCAAGCGCCATCTAC,0.827 RPM ratio (pull-down/input)
2,GATGATTGTTCTCCCAGCTGATGAATTGTCGGGGTCGAGTAAACAAATTTTCCTAATCTTTCTGTTCAAGCGCCATCTAC,0.788 RPM ratio (pull-down/input)
3,GATGATTGTTCTCCCAGCTGATGAATTTGAGCGTTCGAGTAAACAAATTTTCCTAATCTTTCTGTTCAAGCGCCATCTAC,0.876 RPM ratio (pull-down/input)
4,GATGATTGTTCTCCCAGCTGATGAATTGCGCTTTTCGAGTAAACAAATTTTCCTAATCTTTCTGTTCAAGCGCCATCTAC,1.24 RPM ratio (pull-down/input)
5,GATGATTGTTCTCCCAGCTGATGAATTACTTCTATCGAGTAAACAAATTTTCCTAATCTTTCTGTTCAAGCGCCATCTAC,1.09 RPM ratio (pull-down/input)
6,GATGATTGTTCTCCCAGCTGATGAATTGATATCATCGAGTAAACAAATTTTCCTAATCTTTCTGTTCAAGCGCCATCTAC,1.21 RPM ratio (pull-down/input)
7,GATGATTGTTCTCCCAGCTGATGAATTCTCATAATCGAGTAAACAAATTTTCCTAATCTTTCTGTTCAAGCGCCATCTAC,1.23 RPM ratio (pull-down/input)
8,GATGATTGTTCTCCCAGCTGATGAATTGATACAGTCGAGTAAACAAATTTTCCTAATCTTTCTGTTCAAGCGCCATCTAC,1.12 RPM ratio (pull-down/input)
9,GATGATTGTTCTCCCAGCTGATGAATTGATTATTTCGAGTAAACAAATTTTCCTAATCTTTCTGTTCAAGCGCCATCTAC,1.39 RPM ratio (pull-down/input)
10,GATGATTGTTCTCCCAGCTGATGAATTGAAAGTCTCGAGTAAACAAATTTTCCTAATCTTTCTGTTCAAGCGCCATCTAC,0.817 RPM ratio (pull-down/input)
11,GATGATTGTTCTCCCAGCTGATGAATTCTATTCTTCGAGTAAACAAATTTTCCTAATCTTTCTGTTCAAGCGCCATCTAC,0.797 RPM ratio (pull-down/input)
12,GATGATTGTTCTCCCAGCTGATGAATTGAGCAGATCGAGTAAACAAATTTTCCTAATCTTTCTGTTCAAGCGCCATCTAC,0.835 RPM ratio (pull-down/input)
13,GATGATTGTTCTCCCAGCTGATGAATTTACGAGATCGAGTAAACAAATTTTCCTAATCTTTCTGTTCAAGCGCCATCTAC,1.19 RPM ratio (pull-down/input)
14,GATGATTGTTCTCCCAGCTGATGAATTGTTCGAATCGAGTAAACAAATTTTCCTAATCTTTCTGTTCAAGCGCCATCTAC,1.12 RPM ratio (pull-down/input)
15,GATGATTGTTCTCCCAGCTGATGAATTGATACCCTCGAGTAAACAAATTTTCCTAATCTTTCTGTTCAAGCGCCATCTAC,0.951 RPM ratio (pull-down/input)
16,GATGATTGTTCTCCCAGCTGATGAATTTACCCGTTCGAGTAAACAAATTTTCCTAATCTTTCTGTTCAAGCGCCATCTAC,1.08 RPM ratio (pull-down/input)
17,GATGATTGTTCTCCCAGCTGATGAATTTACGCAATCGAGTAAACAAATTTTCCTAATCTTTCTGTTCAAGCGCCATCTAC,1.58 RPM ratio (pull-down/input)
18,GATGATTGTTCTCCCAGCTGATGAATTATGGGTCTCGAGTAAACAAATTTTCCTAATCTTTCTGTTCAAGCGCCATCTAC,0.859 RPM ratio (pull-down/input)
19,GATGATTGTTCTCCCAGCTGATGAATTCGTCAGTTCGAGTAAACAAATTTTCCTAATCTTTCTGTTCAAGCGCCATCTAC,0.905 RPM ratio (pull-down/input)
20,GATGATTGTTCTCCCAGCTGATGAATTCGATCCGTCGAGTAAACAAATTTTCCTAATCTTTCTGTTCAAGCGCCATCTAC,0.886 RPM ratio (pull-down/input)

row,Sequence,binding signal
1,GATGATTGTTCTCCCAGCTGATGAATTCACCAACTCGAGTAAACAAATTTTCCTAATCTTTCTGTTCAAGCGCCATCTAC,0.907 RPM ratio (pull-down/input)
2,GATGATTGTTCTCCCAGCTGATGAATTTGGTCCTTCGAGTAAACAAATTTTCCTAATCTTTCTGTTCAAGCGCCATCTAC,0.877 RPM ratio (pull-down/input)
3,GATGATTGTTCTCCCAGCTGATGAATTGAACACATCGAGTAAACAAATTTTCCTAATCTTTCTGTTCAAGCGCCATCTAC,1.25 RPM ratio (pull-down/input)
4,GATGATTGTTCTCCCAGCTGATGAATTAGCGGCGTCGAGTAAACAAATTTTCCTAATCTTTCTGTTCAAGCGCCATCTAC,0.886 RPM ratio (pull-down/input)
5,GATGATTGTTCTCCCAGCTGATGAATTATCTCCATCGAGTAAACAAATTTTCCTAATCTTTCTGTTCAAGCGCCATCTAC,0.936 RPM ratio (pull-down/input)
6,GATGATTGTTCTCCCAGCTGATGAATTCCTAAACTCGAGTAAACAAATTTTCCTAATCTTTCTGTTCAAGCGCCATCTAC,0.939 RPM ratio (pull-down/input)
7,GATGATTGTTCTCCCAGCTGATGAATTACACATCTCGAGTAAACAAATTTTCCTAATCTTTCTGTTCAAGCGCCATCTAC,1.26 RPM ratio (pull-down/input)
8,GATGATTGTTCTCCCAGCTGATGAATTGCGTACTTCGAGTAAACAAATTTTCCTAATCTTTCTGTTCAAGCGCCATCTAC,1.15 RPM ratio (pull-down/input)
9,GATGATTGTTCTCCCAGCTGATGAATTTAACTGTTCGAGTAAACAAATTTTCCTAATCTTTCTGTTCAAGCGCCATCTAC,0.912 RPM ratio (pull-down/input)
10,GATGATTGTTCTCCCAGCTGATGAATTCGCGAATTCGAGTAAACAAATTTTCCTAATCTTTCTGTTCAAGCGCCATCTAC,0.86 RPM ratio (pull-down/input)
11,GATGATTGTTCTCCCAGCTGATGAATTGTTTCCGTCGAGTAAACAAATTTTCCTAATCTTTCTGTTCAAGCGCCATCTAC,1.33 RPM ratio (pull-down/input)
12,GATGATTGTTCTCCCAGCTGATGAATTCTGATAGTCGAGTAAACAAATTTTCCTAATCTTTCTGTTCAAGCGCCATCTAC,0.872 RPM ratio (pull-down/input)
13,GATGATTGTTCTCCCAGCTGATGAATTTGGACATTCGAGTAAACAAATTTTCCTAATCTTTCTGTTCAAGCGCCATCTAC,0.95 RPM ratio (pull-down/input)
14,GATGATTGTTCTCCCAGCTGATGAATTCTCGTTGTCGAGTAAACAAATTTTCCTAATCTTTCTGTTCAAGCGCCATCTAC,1.07 RPM ratio (pull-down/input)
15,GATGATTGTTCTCCCAGCTGATGAATTAAGTGACTCGAGTAAACAAATTTTCCTAATCTTTCTGTTCAAGCGCCATCTAC,1.01 RPM ratio (pull-down/input)
16,GATGATTGTTCTCCCAGCTGATGAATTGCAGTCATCGAGTAAACAAATTTTCCTAATCTTTCTGTTCAAGCGCCATCTAC,1.15 RPM ratio (pull-down/input)
17,GATGATTGTTCTCCCAGCTGATGAATTCTCCGGCTCGAGTAAACAAATTTTCCTAATCTTTCTGTTCAAGCGCCATCTAC,0.71 RPM ratio (pull-down/input)
18,GATGATTGTTCTCCCAGCTGATGAATTCTGAAACTCGAGTAAACAAATTTTCCTAATCTTTCTGTTCAAGCGCCATCTAC,0.895 RPM ratio (pull-down/input)
19,GATGATTGTTCTCCCAGCTGATGAATTCTATCTATCGAGTAAACAAATTTTCCTAATCTTTCTGTTCAAGCGCCATCTAC,0.89 RPM ratio (pull-down/input)
20,GATGATTGTTCTCCCAGCTGATGAATTGCCAAAATCGAGTAAACAAATTTTCCTAATCTTTCTGTTCAAGCGCCATCTAC,1.18 RPM ratio (pull-down/input)
